Consider 15 compounds from PubChem BioAssay AID2202238 (Ras Initiative Chemistry Research Team, Frederick National …, 2025).

Molecules are shown by their SMILES. The list shows a part of the results. Further columns of the screen follow, without active or inactive calls.

The experiment concerns the target GTPase KRas (Homo sapiens) (UniProt P01116). As to the kind of experiment: Covalent labelling of cysteine mutants by fragments, read by mass spectrometry (AID 2202238). Also on record: protein at 5 µM with 500 µM competing thiol for 1.5 h. The following applies: KRAS G12D cysteine mutants, disulfide tethering, MALDI-TOF labeling, stronger effect = higher value, fragment at 500 µM.
Sequence of UniProt P01116 (P01116 whole entry, looked up, the tested form may be a part): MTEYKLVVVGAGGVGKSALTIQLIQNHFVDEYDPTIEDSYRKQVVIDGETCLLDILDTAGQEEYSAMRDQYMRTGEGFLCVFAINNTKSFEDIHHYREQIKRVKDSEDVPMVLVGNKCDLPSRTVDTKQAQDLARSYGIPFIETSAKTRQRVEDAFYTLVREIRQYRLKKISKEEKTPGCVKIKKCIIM

The mark [1] stands for this setting: measured here: G75C mutant labeling.
Setting [2] is: measured here: H94C mutant labeling.
The mark [3] stands for this setting: measured here: I36C mutant labeling.
Setting [4] is: measured here: L120C mutant labeling.
[5] abbreviates: measured here: M67C mutant labeling.
Setting [6] is: measured here: M72C mutant labeling.
The mark [7] stands for this setting: measured here: N86C mutant labeling.
Setting [8] is: measured here: P121C mutant labeling.
The mark [9] stands for this setting: measured here: S122C mutant labeling.
Setting [10] is: measured here: S136C mutant labeling.
The mark [11] stands for this setting: measured here: G60C mutant labeling.
Setting [12] is: measured here: N26C mutant labeling.

As to `O=C(CCS)Nc1cc2n(n1)CCCN(Cc1ccccc1)C2`, the percent labeling is, setting by setting: under setting [1], 17.7%; under setting [2], 31.9%; under setting [3], 36.4%; under setting [4], 25.8%; under setting [5], 40.6%; under setting [6], 36.9%. In addition, the percent labeling is, setting by setting: under setting [7], 31.2%; under setting [8], 20.7%; under setting [9], 22.1%; under setting [10], 49.6%.
`COc1ccc(C(=O)Nc2cc(F)ccc2C(=O)NCCS)cc1`: the percent labeling under setting [11] was 32.3%; the percent labeling under setting [1] is 15.1%; the percent labeling under setting [2] stood at 15.4%; the percent labeling under setting [3] is 13.2%; the percent labeling under setting [4] was determined as 7.7%; the percent labeling under setting [5] came to 6.5%. Besides, the percent labeling is, setting by setting: under setting [6], 25.1%; under setting [12], 23.9%; under setting [7], 6.7%; under setting [8], 6.4%; under setting [9], 3.8%; under setting [10], 16.6%.
As for `Cc1c(C(=O)NCCS)oc2c1ccc1ccccc12`, the percent labeling reads like this: under setting [11], 39.5%; under setting [1], 24.1%; under setting [2], 19.4%; under setting [3], 14.2%; under setting [4], 26.1%; under setting [5], 10.5%. Also, the percent labeling was 33.4% under setting [6]; 32% under setting [12]; 14.2% under setting [7]; 16.7% under setting [8]; 12.1% under setting [9]; 19.2% under setting [10].
On to `C[C@H]1C[C@H](NC(=O)CCS)c2ccsc2S1(=O)=O`, for which the percent labeling reads like this: under setting [1], 12.3%; under setting [2], 45%; under setting [3], 47%; under setting [4], 33%; under setting [5], 34.4%; under setting [6], 25.4%. Also, the percent labeling came out at 33.6% under setting [7], 34% under setting [8], 32.4% under setting [9] and 63.9% under setting [10].
In the case of `O=C(CCS)N1CCN(Cc2ccncc2)CC1`, the percent labeling by setting is: under setting [1], 9.3%; under setting [2], 19.4%; under setting [3], 28%; under setting [4], 19.1%; under setting [5], 31.4%; under setting [6], 12.1%. The percent labeling is 9.3% under setting [7], 23.6% under setting [8], 23.1% under setting [9] and 43.1% under setting [10].
Take `O=C(NCCS)c1ncccc1-n1ncc2ccccc21`: the percent labeling worked out at 50.1% under setting [11]; 18.9% under setting [1]; 42.5% under setting [2]; 29.6% under setting [3]; 50.9% under setting [4]; 39.7% under setting [5]. The percent labeling reads like this: under setting [6], 35.8%; under setting [12], 39.1%; under setting [7], 30.7%; under setting [8], 35.4%; under setting [9], 32.2%; under setting [10], 55.3%.
For the compound `CC(C)Cc1cc(C(=O)NCCS)cc(=O)[nH]1`, the percent labeling by setting is: under setting [11], 36.5%; under setting [1], 22.8%; under setting [2], 30.3%; under setting [3], 30.8%; under setting [4], 36.2%; under setting [5], 38.5%. The percent labeling by setting is: under setting [6], 67.2%; under setting [12], 46.9%; under setting [7], 20.1%; under setting [8], 33%; under setting [9], 42.8%; under setting [10], 66.7%.
As for `CN1CCN(C(=O)CCS)c2cc(F)ccc21`, the percent labeling under setting [1] is 21%; the percent labeling under setting [2] stood at 40.8%; the percent labeling under setting [3] was found to be 22.6%; the percent labeling under setting [4] was determined as 13.2%; the percent labeling under setting [5] was found to be 24%; the percent labeling under setting [6] came out at 49.2%. Further, the percent labeling stood at 31.7% under setting [7], 22.9% under setting [8], 22.7% under setting [9] and 41.9% under setting [10].
`Cc1nc(CC(C)C)c(C(=O)NCCS)s1`: the percent labeling by setting is: under setting [11], 42.3%; under setting [1], 16.5%; under setting [2], 37%; under setting [3], 23.5%; under setting [4], 31.1%; under setting [5], 37%. For the same compound, the percent labeling by setting is: under setting [6], 38%; under setting [12], 41.7%; under setting [7], 25.7%; under setting [8], 29%; under setting [9], 30.4%; under setting [10], 54.2%.
`O=C(CCS)NCc1ccncc1C(F)(F)F` registered a percent labeling under setting [1] of 9.5%; a percent labeling under setting [2] of 15.7%; a percent labeling under setting [3] of 17.4%; a percent labeling under setting [4] of 14.5%; a percent labeling under setting [5] of 17.4%; a percent labeling under setting [6] of 21.6%. For the same compound, the percent labeling is, setting by setting: under setting [7], 10.6%; under setting [8], 22.9%; under setting [9], 18.5%; under setting [10], 24.7%.
Consider `O=C(CCS)N1CCC(Cc2nc(-c3ccc(F)cn3)no2)CC1`, for which the percent labeling is, setting by setting: under setting [1], 15.3%; under setting [2], 30.4%; under setting [3], 33.1%; under setting [4], 26.8%; under setting [5], 35%; under setting [6], 32.5%. The percent labeling was 29.7% under setting [7], 26% under setting [8], 29.3% under setting [9] and 49% under setting [10].
Take `O=C(CCS)N1CCc2c([nH]c(=O)[nH]c2=O)C1`: the percent labeling is 21.8% under setting [1]; 24.9% under setting [2]; 47.7% under setting [3]; 26% under setting [4]; 34.8% under setting [5]; 28.1% under setting [6]. Further, the percent labeling turned out to be 29% under setting [7], 33.2% under setting [8], 49.9% under setting [9] and 58.7% under setting [10].
Turning to `COc1ccc(C(=O)NCCS)c(OC)c1OC`, the percent labeling under setting [11] came to 40.1%; the percent labeling under setting [1] came to 24.2%; the percent labeling under setting [2] came to 38.6%; the percent labeling under setting [3] worked out at 22.7%; the percent labeling under setting [4] was 38.2%; the percent labeling under setting [5] worked out at 39%. For the same compound, the percent labeling came to 32.9% under setting [6]; 43.3% under setting [12]; 25.9% under setting [7]; 32.8% under setting [8]; 31.1% under setting [9]; 53.2% under setting [10].
As for `CC(=O)N(C)Cc1ccccc1NC(=O)CCS`, the percent labeling runs as follows: under setting [1], 11.3%; under setting [2], 44.1%; under setting [3], 31.2%; under setting [4], 29.8%; under setting [5], 33%; under setting [6], 18.3%. Moreover, the percent labeling runs as follows: under setting [7], 21.8%; under setting [8], 27.7%; under setting [9], 28.5%; under setting [10], 50.2%.
Regarding `Cc1nn(Cc2ccccc2)c(C)c1NC(=O)CCS`, the percent labeling runs as follows: under setting [1], 13.4%; under setting [2], 41.4%; under setting [3], 41.2%; under setting [4], 37.4%; under setting [5], 61.2%; under setting [6], 31%. Also, the percent labeling is, setting by setting: under setting [7], 22.8%; under setting [8], 37.2%; under setting [9], 37.3%; under setting [10], 60.7%.
